# Measured values published in PMC4336329 (PLoS ONE, 2015).
# In all, about 310,000 compounds went through this assay and about 14,000 (4.5%) showed an effect of 50% or more. Effects have a minus sign here. This is one part of the list.
# Molecular target: human ether-à-go-go-related gene (hERG) potassium channel (human, UniProt Q12809)
# Experiment: primary screen, population patch clamp on CHO cells stably expressing hERG
# Description: Briefly, Chinese hamster ovary (CHO) cells stably expressing the hERG channel were dislodged from tissue culture flasks and dispensed into PPC plates. […] During the recording, background leak currents were estimated by a 100 ms step to -80 mV from an initial holding potential of -70 mV and subtracted from the subsequent current measurement. The campaign was conducted in two phases using slight differences in recording protocol. In the first phase, the initial voltage pulse used a 100 ms step to -30 mV from a holding potential of -70 mV, a 2 s conditioning step to +25 mV, and a 2 s test step to -30 mV. During the second phase of the screen, the potential during the conditioning step was raised to +45 mV. In both phases of the campaign, a secondary voltage pulse was applied using the same parameters as the second phase initial pulse. The initial and secondary pulses were applied in the absence of compound, and upon application of 1 μM and 10 μM test concentrations. […]
# 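Also: peak tail current of the secondary pulse compared with the same well before compound.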
# Chain of human ether-à-go-go-related gene (hERG) potassium channel (Q12809 whole entry, looked up): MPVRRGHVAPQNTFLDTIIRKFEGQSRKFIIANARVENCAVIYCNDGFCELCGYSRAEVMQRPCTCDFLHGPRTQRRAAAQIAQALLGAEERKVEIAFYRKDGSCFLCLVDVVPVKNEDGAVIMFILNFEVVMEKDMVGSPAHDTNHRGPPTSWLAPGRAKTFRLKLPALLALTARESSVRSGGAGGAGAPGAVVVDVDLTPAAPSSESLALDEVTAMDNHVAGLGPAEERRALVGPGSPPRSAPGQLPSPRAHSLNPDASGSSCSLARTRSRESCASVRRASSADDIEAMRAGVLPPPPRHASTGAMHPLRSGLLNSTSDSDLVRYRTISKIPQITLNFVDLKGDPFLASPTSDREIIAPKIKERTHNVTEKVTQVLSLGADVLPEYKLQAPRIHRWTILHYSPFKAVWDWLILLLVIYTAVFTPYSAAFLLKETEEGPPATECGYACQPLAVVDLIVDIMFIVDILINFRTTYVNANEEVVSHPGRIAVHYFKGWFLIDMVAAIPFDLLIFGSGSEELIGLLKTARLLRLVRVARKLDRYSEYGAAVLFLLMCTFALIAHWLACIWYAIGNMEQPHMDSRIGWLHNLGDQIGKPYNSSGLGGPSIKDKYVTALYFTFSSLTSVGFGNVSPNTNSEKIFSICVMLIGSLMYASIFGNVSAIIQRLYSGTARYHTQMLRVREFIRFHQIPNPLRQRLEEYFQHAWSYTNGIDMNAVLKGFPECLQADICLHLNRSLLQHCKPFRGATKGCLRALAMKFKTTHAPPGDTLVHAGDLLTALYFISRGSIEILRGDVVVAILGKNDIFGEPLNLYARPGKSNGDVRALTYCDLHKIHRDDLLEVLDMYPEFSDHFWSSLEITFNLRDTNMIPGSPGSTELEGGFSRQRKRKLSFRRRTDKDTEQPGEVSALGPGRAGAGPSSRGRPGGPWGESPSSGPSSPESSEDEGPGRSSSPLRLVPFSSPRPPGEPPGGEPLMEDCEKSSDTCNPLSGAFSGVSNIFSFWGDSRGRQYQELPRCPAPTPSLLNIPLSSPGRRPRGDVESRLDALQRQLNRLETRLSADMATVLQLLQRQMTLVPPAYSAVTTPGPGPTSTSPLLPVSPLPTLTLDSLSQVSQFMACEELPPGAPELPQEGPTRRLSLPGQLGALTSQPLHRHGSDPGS
row,Compound,"hERG current change (%, negative = inhibition) at 10uM [%]"
1,CN(C)CCCN(C(=O)c1ccc([N+](=O)[O-])s1)c1nc2cc3c(cc2s1)OCCO3.Cl,-71.3
2,CC(=O)NC(c1ccco1)c1cc(Cl)c2ccc(Cl)nc2c1O (stereo not drawn),-20.4
3,COc1cc(CC(C)N)c(OC)cc1I.Cl (stereo not drawn),-12.7
4,O=C(Nc1cscc1S(=O)(=O)c1ccccc1)c1ccccc1Cl,-9.12
5,O=C(CC1C(=O)NCCN1Cc1cccc(F)c1)NCCCOc1cccnc1 (stereo not drawn),0.777
6,N#CCC(=O)Nc1ccc(C(=O)Nc2cccnc2)cc1,7.29
7,CCOC(=O)c1c(NC(=O)c2nc3n(n2)C(C(F)F)CC(C)N3)sc2c1CCCC2 (stereo not drawn),15.4
8,COc1ccc(NC(=O)/C=C/c2ccc(OC)c(OC)c2)cn1,14.7
9,CC1=NN(C(=O)CSCc2ccccc2)C(O)(c2ccc(Cl)cc2)C1 (stereo not drawn),-21.6
10,N#CCOc1coc(CN2CCN(c3ccccc3)CC2)cc1=O,7.53
11,C[C@H]1COc2c(C3(N)CC3)c(F)cc3c(=O)c(C(=O)O)cn1c23,16.4
12,Cc1ccc(NC(=O)N2C3CCCC2CC(NC(=O)C2CC2)C3)cc1 (stereo not drawn),17.5
13,O=C(O)/C=C/C(=O)Nc1ccc(NC(=O)c2ccccc2)c(Cl)c1,21.4
14,CC(=O)N(C)c1ccc(NC(=O)Cc2cccc3ccccc23)cc1,7.53
15,CC(=O)NC1=NN(C(C)=O)C(C)(c2ccc(C)o2)S1 (stereo not drawn),11.8
16,Cn1c(CN2CCOCC2)nc2cc(NC(=O)c3ccc(Cl)cc3)ccc21,-34.2
17,O=C(CCCn1c(=O)c2sccc2n(CC(=O)NCc2ccco2)c1=O)NCc1ccco1,-6.69
18,CCOc1ccccc1NC(=O)CCn1nc(C)c(S(=O)(=O)N2CCCCC2)c1C,11.6
19,Cc1ccc(S(=O)(=O)Cc2ccc(C(=O)N3CCC4(CC3)OCCO4)o2)cc1,2.19
20,O=C(CCCCC(=O)Nc1ccccc1Cl)Nc1ccccc1Cl,16.3
21,Cc1ccc(-c2cc(C(=O)N3CCCCC3)c3ccccc3n2)cc1C,-2.35
22,COc1ccc(C)cc1NC(=O)C1CCCN(S(=O)(=O)c2cnc[nH]2)C1 (stereo not drawn),6.37

row,Compound,"hERG current change (%, negative = inhibition) at 10uM [%]"
1,CCCC(=O)NC(=S)Nc1cccc2c(O)cccc12,11.8
2,CCOCCCn1c(SCC(=O)Nc2ccc(NC(C)=O)cc2)nc2ccccc2c1=O,7.29
3,c1ccc(Cc2nnc3sc(C4COc5ccccc5O4)nn23)cc1 (stereo not drawn),-10.9
4,O=C(O)CN(c1ccccc1[N+](=O)[O-])S(=O)(=O)c1ccccc1,35.5
5,O=C(Nc1ccc(S(=O)(=O)Nc2ncccn2)cc1)C(F)(F)F,21.2
6,O=C(CN1C(=O)S/C(=C\c2cccs2)C1=O)Nc1ccc(O)c(C(=O)O)c1,-9.36
7,Cc1cccc(OCC(=O)Nc2ccc3c4c(cccc24)CC3)c1C,12
8,CCN1CCC(N2CCN(c3ccc(Cl)cc3)CC2)CC1,-18.8
9,Cc1ccc(NC(=O)C2CCN(S(C)(=O)=O)CC2)cc1,12.1
10,COc1cc(/C=N/NC(=O)Cn2nnc3ccccc32)ccc1O,8.83
11,c1ccc(CCCCN2CCN=C2Nc2ccccc2)cc1,-42
12,Cc1[nH]n(-c2ccccc2)c(=O)c1C(c1ccccc1C(=O)O)c1c(C)[nH]n(-c2ccccc2)c1=O,5.58
13,Cc1ccccc1NC(=O)NC1(C(=O)N2CCOCC2)CCCCC1,14.6
14,CC(C)NC(=O)CC(=O)N/N=C/c1cccs1,19.9
15,O=C(NCc1ccccc1)c1ccc2nnsc2c1,-1.17
16,CC(=O)N1CCCC(N2CCN(c3cccc(C(F)(F)F)c3)CC2)C1 (stereo not drawn),-3.73
17,CC(=O)c1ccc(NC(=O)c2cc(CC(C)C)on2)cc1,9.71
18,CCN(C(=O)COC(=O)/C=C/c1ccco1)c1c(N)n(Cc2ccccc2)c(=O)[nH]c1=O,-1.01
19,O=C(Nc1ccc(F)cc1)C(c1ccccc1)N1CCN(CC(=O)N2CCOCC2)CC1 (stereo not drawn),-52.1
20,CCN(CC(=O)N1CCCC1)S(=O)(=O)c1ccc(F)cc1,12.9
21,Cc1cccc(Cl)c1NC(=O)N1CCN(c2ccnc3cc(Cl)ccc23)CC1,-16.8
22,Cc1nnc(SCC(=O)N2CCCC(C(=O)c3ccc(Cl)cc3)C2)o1 (stereo not drawn),-16

row,Compound,"hERG current change (%, negative = inhibition) at 10uM [%]"
1,COc1ccc(NC(=O)C(=O)NCCC2CCCCN2S(=O)(=O)c2ccccc2)cc1 (stereo not drawn),-43.2
2,COc1ccc(OC)c(C(=O)c2coc3ccc(OC(C)=O)cc23)c1,2.92
3,COc1ccccc1C(=O)N/C(=C/c1ccco1)C(=O)Nc1ccc(C(=O)O)cc1,13.7
4,Cc1ccc(S(=O)(=O)N2CCC(n3nnc4cc(C)ccc43)CC2)cc1,-28.9
5,CCn1c(Cn2nnc(-c3ccccc3)n2)nnc1SCC(=O)Nc1ccc(C(C)=O)cc1,-1.99
6,COc1ccc(C2(C)NC(=O)N(CC(=O)NCc3ccccc3)C2=O)cc1OC (stereo not drawn),27.7
7,Cc1ccc(S(=O)(=O)c2c(N)n(/N=C/c3ccco3)c3nc4ccccc4nc23)cc1C,-16
8,CCN(CC(=O)Nc1ccc(OC)cc1)CC(=O)Nc1ccc(Br)cc1F,-67.4
9,CC1=CC2CC1C1C(=O)N(c3ccc(S(=O)(=O)Nc4nc(C)cc(C)n4)cc3)C(=O)C21 (stereo not drawn),25.2
10,N/C(COc1ccc(Cl)cc1Cl)=N\O,-1.25
11,COc1ccc2nc(NCCCNC(=O)c3cc(OC)c(OC)c(OC)c3)c(C#N)cc2c1,-11
12,CCOC(=O)CNC(=O)Cn1cnc2c(nnn2-c2ccc(OC)cc2)c1=O,-7.44
13,COC(=O)CSC1=C(C#N)C(c2ccsc2)CC(=O)N1 (stereo not drawn),12.1
14,CC[C@@H]1CC=C[C@H]2[C@H]1C(=O)N(Cc1ccccc1)[C@H]2c1ccc(OC)c(Cl)c1,10.6
15,COC(=O)c1ccc(N=CC2=C(O)CC(c3ccccc3)CC2=O)cc1 (stereo not drawn),11.9
16,O=C1CCN(S(=O)(=O)c2ccccc2)CCN1CCOCc1ccc(C(F)(F)F)cc1,-26.5
17,Cc1ccc(C(=O)CNc2cc(C)ccc2C)cc1,2.95
18,CCOC(=O)c1cc2sccc2n1CC(=O)C(C)(C)C,-28.6
19,CC(=O)c1ccc(-n2nncc2C)cc1,19.8
20,CCOC(=O)c1cnc(-n2nc(C)cc2C)nc1NC1CCCC1,-26.2
21,CC(=O)Nc1ccc(S(=O)(=O)N(C)CC(=O)OCC(=O)N(C)C2CCS(=O)(=O)C2)cc1 (stereo not drawn),18.8
22,CC1(C)CCCC2=C1CC1C(=O)N(c3ccccc3)C(=O)C1C2 (stereo not drawn),-11.9

row,Compound,"hERG current change (%, negative = inhibition) at 10uM [%]"
1,Nc1nc2c(nc(SCc3ccccc3Br)n2C2OC(CO)C(O)C2O)c(=O)[nH]1 (stereo not drawn),34.9
2,CC(C)C[C@H](NS(=O)(=O)c1ccc(Br)cc1)C(=O)O,0.986
3,Cc1cccc(C(=O)N(Cc2cccs2)C2CCS(=O)(=O)C2)c1 (stereo not drawn),0.55
4,Cc1occc1C(=O)NNS(=O)(=O)c1ccc([N+](=O)[O-])cc1,10.5
5,COc1cc(/C=C2\COC/C(=C\c3ccc(O)c(OC)c3)C2=O)ccc1O,-2.68
6,Cc1ccccc1-c1nnc(-c2cccs2)o1,0.392
7,Cc1ccc(C(=O)NC(=S)Nc2ccc(-c3cc4ccccc4oc3=O)cc2)c(C)c1,27.1
8,O=C(NCc1cccs1)c1ccccc1F,-3.47
9,O=C(NNC(=O)C1CCN(S(=O)(=O)c2ccc(Cl)cc2)CC1)c1ccncc1,12.4
10,CCN1CCc2c(sc(NC(=O)Cc3ccccc3)c2C(N)=O)C1.Cl,-20.3
11,CC(C)(C)c1ccccc1NC(=O)COC(=O)CN1C(=O)NC2(CCCC2)C1=O,15.8
12,Cc1ccsc1C(C(=O)NC1CCCCC1)N(C(=O)Cc1cccs1)C1CC1 (stereo not drawn),3.07
13,Cc1ccc(C)c(-n2ccnc2SCC(=O)c2c(N)n(C3CC3)c(=O)[nH]c2=O)c1,-6.14
14,COc1ccccc1N1CCN(C2CCCN(Cc3cc(F)cc(F)c3)C2)CC1 (stereo not drawn),-6.62
15,Cc1cccc2c(C(=O)Nc3ccc(Br)cc3)cc(-c3ccccn3)nc12,12.9
16,CO/N=C(\Cn1ncc(N2CCOCC2)c(Br)c1=O)c1ccc(Cl)cc1,-19.7
17,CN1CCN(CCC(=O)N/N=C/c2cc3c(cc2[N+](=O)[O-])OCO3)CC1,9.64
18,O=C(Cn1[nH]c(=O)c2ccccc2c1=O)OCC(=O)N1CCCc2ccccc21,-6.41
19,CCOC(=O)c1oc2ccccc2c1CN1CCOCC1.Cl,-4.56
20,C=CCn1cnc2c(nnn2-c2ccc(Cl)cc2)c1=O,-37.9
21,COc1cccc(Cn2cc(C)cc(NC(=O)NCc3ccccc3)c2=O)c1,11.9
